Measurements reported in the supplement of paper PMC3334620.
Over roughly 33,000 sequences, “E-score (-0.5 to 0.5)” has its median near -0.043; the highest 2% begin near 0.37. This is one part of the list.

What follows are sequences tested against T1, Upc2 (UniProt Q12151) (assay: PBM E-score (8-mer binding enrichment) (E-score (-0.5 to 0.5)); higher = stronger / more preferred TF binding; most listed sequences are background and not binding sites). Conditions: protein concentration: 200 nM; construct: GST-full length.
T1 sequence: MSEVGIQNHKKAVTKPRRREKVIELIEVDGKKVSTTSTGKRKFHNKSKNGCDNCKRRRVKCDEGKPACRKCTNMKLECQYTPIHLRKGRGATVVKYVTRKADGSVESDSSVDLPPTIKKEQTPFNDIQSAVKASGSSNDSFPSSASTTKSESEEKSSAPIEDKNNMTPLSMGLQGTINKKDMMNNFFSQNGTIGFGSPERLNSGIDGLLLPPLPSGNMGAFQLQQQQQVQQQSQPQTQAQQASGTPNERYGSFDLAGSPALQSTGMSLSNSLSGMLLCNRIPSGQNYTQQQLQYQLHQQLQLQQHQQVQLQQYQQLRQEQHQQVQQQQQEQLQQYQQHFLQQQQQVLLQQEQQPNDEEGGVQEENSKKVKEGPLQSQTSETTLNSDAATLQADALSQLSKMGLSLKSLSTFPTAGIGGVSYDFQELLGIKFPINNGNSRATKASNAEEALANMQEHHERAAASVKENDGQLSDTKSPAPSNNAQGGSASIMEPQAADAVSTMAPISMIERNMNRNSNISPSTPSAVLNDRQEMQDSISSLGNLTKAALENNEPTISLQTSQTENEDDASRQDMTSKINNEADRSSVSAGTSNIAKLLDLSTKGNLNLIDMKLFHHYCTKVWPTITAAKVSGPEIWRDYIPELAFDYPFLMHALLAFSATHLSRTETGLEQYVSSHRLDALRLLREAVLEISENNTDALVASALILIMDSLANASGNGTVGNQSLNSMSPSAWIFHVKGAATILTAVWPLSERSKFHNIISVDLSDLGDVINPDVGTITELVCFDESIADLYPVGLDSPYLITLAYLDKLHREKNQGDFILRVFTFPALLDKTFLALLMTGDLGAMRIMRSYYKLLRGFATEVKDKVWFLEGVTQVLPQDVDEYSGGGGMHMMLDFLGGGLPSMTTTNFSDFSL
Experimental: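 Universal 'all 10-mer' protein binding microarrays (Agilent AMADID 015681) probed with GST-tagged S. cerevisiae TFs (full-length or DBD) made by in vitro transcription/translation (PURExpress), about 100-200 nM. Bound TF was detected with fluorescent anti-GST. Each ungapped 8-mer (which stands for itself and its reverse complement) is scored by the PBM enrichment score (E-score), a modified Wilcoxon-Mann-Whitney statistic from -0.5 to +0.5, computed with the Universal PBM Analysis Suite. Scale: above 0.35 generally sequence-specific binding.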

Sequence	PBM E-score
GTTTGTGA	0.0939
AGACGTGA	-0.0748
CGTCATGC	-0.202
ATCAATGG	-0.234
CCGATAGG	-0.0556
AACTGAGC	-0.0377
AAGGTCTC	-0.107
TTCGCAAA	0.208
AACCCCTG	-0.157
GCAACGAA	0.314
ATCTAAAC	0.273
AGTTGATC	0.0263
ACTGCCAA	0.0299
AGGAGAAT	-0.016
AGAATATC	-0.145
ACGAACGA	0.435
AACAGGTT	0.0276
AGTTCATG	-0.0839
CAATCAGC	-0.123
ATGACGTC	0.0247
AATTGATG	0.107
CCCAGCGC	-0.0828
AATTGCAA	0.0461
CATGCGCC	-0.171
GAATGCGA	0.21

Sequence	PBM E-score
CTATCCAG	-0.263
AGTAGCTA	-0.0474
AGCATACA	-0.0736
GGTAGCAC	-0.313
GTTTCGGA	0.219
AGGCCGTG	-0.207
AAGTAATT	0.133
ATTATTTC	0.0489
CCTCCCAG	-0.234
CACAACGC	0.0768
AGCCTTAT	0.0162
GGGATCAA	-0.0307
GACGGACA	-0.00605
CGGTGGAG	0.171
CTCAAGCC	-0.144
GAGAGAGC	0.13
CGGCCGAA	-0.127
AGTAGGCG	-0.0173
CTATAGTA	-0.12
CAACTCGA	-0.0457
ACGACTGA	0.299
CGCCATGA	-0.18
TACTGTAA	0.194
ATTGTCTC	-0.0724
TGAAACCA	-0.186

Sequence	PBM E-score
ATCCTTGA	-0.168
CGAGATGC	0.0652
ACCCTCAA	-0.25
GGGACCCA	-0.0504
AATTTCCG	0.184
ATATCAGG	-0.118
ATTTCAAA	-0.0405
CACGCGCA	-0.0995
AATAGCTG	-0.186
GGTGGGAA	0.116
CCTCCGCC	-0.254
ACACCAGT	-0.232
AGAACCCA	0.0683
GCCCTGGA	-0.0731
CCCGATGC	-0.0423
ACACAAAC	0.0907
GCACTGAC	-0.227
GAGGACCA	-0.0391
GGCTATGA	-0.204
TATTTGGA	-0.114
CATAGGAA	0.0328
CCCAGACA	-0.0315
CCACGAGA	-0.277
AGTCCTCC	-0.174
ATGGACCA	0.0213

Sequence	PBM E-score
AATCTAAT	-0.0562
CGGCGGAA	-0.0281
GTGTGTTA	0.00098
ATCCGTGC	0.0414
CGCGCAAC	-0.0708
AAATGGGG	-0.302
ATAGGACA	0.0647
CCACGTTA	0.136
ACTATCCA	-0.0745
CTAGAGTA	-0.116
ATCAATAG	-0.109
CTCCCTCA	-0.176
AACCCTTC	0.0691
AATTCGTC	0.0116
AGGCGCCG	0.109
AGTGTTAC	0.107
ACCGCATG	-0.0929
ACGCTTGA	-0.0409
ATTACCTG	-0.148
CCGCAGCA	-0.267
CTTTTAAA	0.204
AAGGCCGT	0.244
CATGCTCG	-0.0682
CAAAGGGC	-0.362
ATGGGACG	-0.0306

Sequence	PBM E-score
AAATGGCA	-0.0352
GTAGTATA	0.219
AAGGCTTA	0.0687
ATTCTAAA	0.155
CCAGCCGC	0.0603
AGATTAAA	-0.0115
CCATTGAC	-0.043
TCCGTTCA	0.277
AGAGTACG	0.237
GAGGGACA	0.0576
ATGTTAAT	0.0354
ATCGGAGC	-0.00581
ATAAGGGA	-0.0288
AACGTAAT	0.101
AGGCTCGC	0.188
CGAAGGAA	0.126
ATAAAGGC	-0.0848
ACCCGTAC	0.354
AGAACTCA	-0.133
AGTAGTGG	-0.164
CGGGTCTA	0.113
ACTGACCC	-0.206
AGGCGGGC	-0.214
ACATGTCA	-0.121
AATTAGAA	-0.0359

Sequence	PBM E-score
TAGGATCA	-0.0207
AACGCGAG	0.21
GACACTTA	0.0114
GCTGCAGA	-0.0488
ATGTCAAA	0.0208
AAACACTT	0.0888
GCCCCGGA	-0.184
GCAACCCA	-0.0298
ACACGCAA	-0.00615
GGCGCACC	-0.0291
CCAAACCA	-0.154
AGACGTAT	0.259
AGTGATCA	-0.0858
GTTATTAA	0.101
AACTGCAG	-0.0258
CAAAGTGA	-0.00649
CAACCCCA	-0.121
CAGACACC	-0.222
AGTTTGAT	-0.0284
CTAGTCCA	-0.412
CCCGACCG	0.0852
GAATCGGA	0.0185
GGCAACGA	0.33
ACGATACG	0.391
CGGTCTCC	-0.171

Sequence	PBM E-score
CGAAGGGA	-0.0715
CCGCGGAA	-0.0349
CCCGGACC	-0.205
CACCGTGC	0.0319
ATGTTCCC	-0.147
AACTGCAA	-0.0876
CTACGAAA	0.272
CATAAAGA	-0.0449
AGCACCAC	-0.186
GCCGTGCC	-0.123
TCAGTACA	0.0811
AATACCGT	0.169
CTCTGACA	-0.153
AGGAAAGC	-0.0443
ACTAAAGT	-0.222
CGACAATC	-0.0367
CCCCGTCA	-0.218
ACGTATAA	0.437
ACCCCTAG	-0.308
ATTCCAGC	-0.136
AGTCTTCC	-0.261
CGGATGCA	-0.138
